# Measurements taken from the supplement of paper PMC8728848.
# This is one part of the list.
# B1: Dectin-1 (Mus musculus), Q6QLQ4 (protein)
# chain: EYGHNSGRNPEEKDNFLSRNKENHKPTESSLDEKVAPSKASQTTGGFSQPCLPNWIMHGKSCYLFSFSGNSWYGSKRHCSQLGAHLLKIDNSKEFEFIESQTSSHRINAFWIGLSRNQSEGPWFWEDGSAFFPNSFQVRNTAPQESLLHNCVWIHGSEVYNQICNTSSYSICEKEL
# Tests used:
# Assay in all cases: glycan array binding signal (z-score within array); higher = stronger binding
# Settings in all cases: glycan notation: IUPAC condensed, linker removed
# [1] = molecular target: Glc(b1-3)Glc(b1-3)Glc(b1-3)Glc(b1-3)Glc(b1-3)Glc(b1-3)[Glc(b1-6)]Glc(b1-3)Glc(b1-3)Glc
# Method in brief: (§1)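 The Consortium for Functional Glycomics database supplied 3228 glycan arrays, of which those lacking an available protein sequence were dropped. The binding signal, a within-array Z-score, was averaged across arrays of the same protein sequence and across linkers. Negative scores can be read as non-binding.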
# [2] = molecular target: Glc(b1-3)Glc(b1-3)Glc(b1-3)Glc(b1-3)[Glc(b1-6)]Glc(b1-3)Glc(b1-3)Glc(b1-3)Glc(b1-3)Glc
# Method in brief: as §1
# [3] = molecular target: Glc(b1-3)Glc(b1-3)Glc(b1-3)[Glc(b1-6)]Glc(b1-3)Glc(b1-3)Glc(b1-3)Glc(b1-3)[Glc(b1-6)]Glc(b1-3)Glc
# Method in brief: as §1
# [4] = molecular target: Glc(b1-3)Glc(b1-3)[Glc(b1-6)]Glc(b1-3)Glc(b1-3)Glc(b1-3)Glc(b1-3)Glc(b1-3)Glc(b1-3)Glc
# Method in brief: as §1
# Glc(b1-3)Glc(b1-4)Glc = molecular target: Glc(b1-3)Glc(b1-4)Glc
# Method in brief: as §1
# [5] = molecular target: Glc(b1-3)Glc(b1-4)Glc(b1-4)Glc
# Method in brief: as §1
# [6] = molecular target: Glc(b1-3)Glc(b1-4)Glc(b1-6)Glc(b1-4)Glc
# Method in brief: as §1
# [7] = molecular target: Glc(b1-3)[Glc(b1-6)]Glc(a1-3)Glc(b1-3)[Glc(b1-6)]Glc
# Method in brief: as §1
# [8] = molecular target: Glc(b1-3)[Glc(b1-6)]Glc(b1-3)Glc(b1-3)Glc(b1-3)Glc(b1-3)Glc(b1-3)Glc(b1-3)Glc
# Method in brief: as §1
# Glc(b1-4)Glc = molecular target: Glc(b1-4)Glc
# Method in brief: as §1
# Glc(b1-4)Glc(b1-3)Glc = molecular target: Glc(b1-4)Glc(b1-3)Glc
# Method in brief: as §1
# [9] = molecular target: Glc(b1-4)Glc(b1-3)Glc(b1-4)Glc
# Method in brief: as §1
# Glc(b1-4)Glc(b1-4)Glc = molecular target: Glc(b1-4)Glc(b1-4)Glc
# Method in brief: as §1
# [10] = molecular target: Glc(b1-4)Glc(b1-4)Glc(b1-3)Glc
# Method in brief: as §1
# [11] = molecular target: Glc(b1-4)Glc(b1-4)Glc(b1-3)Glc(b1-4)Glc(b1-4)Glc(b1-3)Glc
# Method in brief: as §1
# [12] = molecular target: Glc(b1-4)Glc(b1-4)Glc(b1-4)Glc
# Method in brief: as §1
# [13] = molecular target: Glc(b1-4)Glc(b1-4)Glc(b1-4)Glc(b1-3)Glc
# Method in brief: as §1
# [14] = molecular target: Glc(b1-4)Glc(b1-4)Glc(b1-4)Glc(b1-4)Glc
# Method in brief: as §1
# [15] = molecular target: Glc(b1-4)Glc(b1-4)Glc(b1-4)Glc(b1-4)Glc(b1-4)Glc
# Method in brief: as §1
# [16] = molecular target: Glc(b1-4)Glc(b1-4)Glc(b1-4)Glc(b1-4)Glc(b1-4)Glc(b1-4)Glc
# Method in brief: as §1
# [17] = molecular target: Glc(b1-4)Glc(b1-4)Glc(b1-4)Glc(b1-4)Glc(b1-4)Glc(b1-4)Glc(b1-4)Glc
# Method in brief: as §1
# [18] = molecular target: Glc(b1-4)Glc(b1-4)Glc(b1-4)Glc(b1-4)Glc(b1-4)Glc(b1-4)Glc(b1-4)Glc(b1-4)Glc
# Method in brief: as §1
# [19] = molecular target: Glc(b1-4)Glc(b1-4)Glc(b1-4)Glc(b1-4)Glc(b1-4)Glc(b1-4)Glc(b1-4)Glc(b1-4)Glc(b1-4)Glc
# Method in brief: as §1
# [20] = molecular target: Glc(b1-4)Glc(b1-4)Glc(b1-4)Glc(b1-4)Glc(b1-4)Glc(b1-4)Glc(b1-4)Glc(b1-4)Glc(b1-4)Glc(b1-4)Glc
# Method in brief: as §1
# [21] = molecular target: Glc(b1-4)Glc(b1-4)Glc(b1-4)Glc(b1-4)Glc(b1-4)Glc(b1-4)Glc(b1-4)Glc(b1-4)Glc(b1-4)Glc(b1-4)Glc(b1-4)Glc
# Method in brief: as §1
# [22] = molecular target: Glc(b1-4)Glc(b1-4)Glc(b1-4)Glc(b1-4)Glc(b1-4)Glc(b1-4)Glc(b1-4)Glc(b1-4)Glc(b1-4)Glc(b1-4)Glc(b1-4)Glc(b1-4)Glc
# Method in brief: as §1
# Glc(b1-6)Glc = molecular target: Glc(b1-6)Glc
# Method in brief: as §1
# Glc(b1-6)Glc(b1-6)Glc = molecular target: Glc(b1-6)Glc(b1-6)Glc
# Method in brief: as §1
# [23] = molecular target: Glc(b1-6)Glc(b1-6)Glc(b1-6)Glc
# Method in brief: as §1
# [24] = molecular target: Glc(b1-6)Glc(b1-6)Glc(b1-6)Glc(b1-6)Glc
# Method in brief: as §1
# [25] = molecular target: Glc(b1-6)Glc(b1-6)Glc(b1-6)Glc(b1-6)Glc(b1-6)Glc
# Method in brief: as §1
# [26] = molecular target: Glc(b1-6)Glc(b1-6)Glc(b1-6)Glc(b1-6)Glc(b1-6)Glc(b1-6)Glc
# Method in brief: as §1
# [27] = molecular target: Glc(b1-6)Glc(b1-6)Glc(b1-6)Glc(b1-6)Glc(b1-6)Glc(b1-6)Glc(b1-6)Glc
# Method in brief: as §1
# [28] = molecular target: Glc(b1-6)Glc(b1-6)Glc(b1-6)Glc(b1-6)Glc(b1-6)Glc(b1-6)Glc(b1-6)Glc(b1-6)Glc
# Method in brief: as §1
# [29] = molecular target: Glc(b1-6)Glc(b1-6)Glc(b1-6)Glc(b1-6)Glc(b1-6)Glc(b1-6)Glc(b1-6)Glc(b1-6)Glc(b1-6)Glc
# Method in brief: as §1
# [30] = molecular target: Glc(b1-6)Glc(b1-6)Glc(b1-6)Glc(b1-6)Glc(b1-6)Glc(b1-6)Glc(b1-6)Glc(b1-6)Glc(b1-6)Glc(b1-6)Glc
# Method in brief: as §1
# [31] = molecular target: Glc(b1-6)Glc(b1-6)Glc(b1-6)Glc(b1-6)Glc(b1-6)Glc(b1-6)Glc(b1-6)Glc(b1-6)Glc(b1-6)Glc(b1-6)Glc(b1-6)Glc
# Method in brief: as §1
# [32] = molecular target: Glc(b1-6)Glc(b1-6)Glc(b1-6)Glc(b1-6)Glc(b1-6)Glc(b1-6)Glc(b1-6)Glc(b1-6)Glc(b1-6)Glc(b1-6)Glc(b1-6)Glc(b1-6)Glc
# Method in brief: as §1
# [33] = molecular target: Man(b1-4)Man(b1-4)Man(b1-4)Man
# Method in brief: as §1
# [34] = molecular target: Man(b1-4)Man(b1-4)Man(b1-4)Man(b1-4)Man
# Method in brief: as §1
# [35] = molecular target: Man(b1-4)Man(b1-4)Man(b1-4)Man(b1-4)Man(b1-4)Man
# Method in brief: as §1
# [36] = molecular target: Xyl(b1-4)Xyl(b1-4)Xyl(b1-4)Xyl(b1-4)Xyl
# Method in brief: as §1
# [37] = molecular target: Xyl(b1-4)Xyl(b1-4)Xyl(b1-4)Xyl(b1-4)Xyl(b1-4)Xyl
# Method in brief: as §1
binder,measurement,setting,value
B1,glycan array binding signal (z-score),[1],-0.182
same,glycan array binding signal (z-score),[2],-0.182
same,glycan array binding signal (z-score),[3],-0.182
same,glycan array binding signal (z-score),[4],-0.182
same,glycan array binding signal (z-score),Glc(b1-3)Glc(b1-4)Glc,-0.182
same,glycan array binding signal (z-score),[5],-0.182
same,glycan array binding signal (z-score),[6],-0.182
same,glycan array binding signal (z-score),[7],-0.182
same,glycan array binding signal (z-score),[8],-0.182
same,glycan array binding signal (z-score),Glc(b1-4)Glc,-0.167
same,glycan array binding signal (z-score),Glc(b1-4)Glc(b1-3)Glc,-0.068
same,glycan array binding signal (z-score),[9],-0.182
same,glycan array binding signal (z-score),Glc(b1-4)Glc(b1-4)Glc,-0.157
same,glycan array binding signal (z-score),[10],-0.116
same,glycan array binding signal (z-score),[11],-0.124
same,glycan array binding signal (z-score),[12],-0.135
same,glycan array binding signal (z-score),[13],-0.001
same,glycan array binding signal (z-score),[14],-0.138
same,glycan array binding signal (z-score),[15],-0.148
same,glycan array binding signal (z-score),[16],-0.159
same,glycan array binding signal (z-score),[17],-0.125
same,glycan array binding signal (z-score),[18],-0.151
same,glycan array binding signal (z-score),[19],-0.178
same,glycan array binding signal (z-score),[20],-0.169
same,glycan array binding signal (z-score),[21],-0.149
same,glycan array binding signal (z-score),[22],-0.156
same,glycan array binding signal (z-score),Glc(b1-6)Glc,-0.167
same,glycan array binding signal (z-score),Glc(b1-6)Glc(b1-6)Glc,-0.141
same,glycan array binding signal (z-score),[23],-0.125
same,glycan array binding signal (z-score),[24],-0.14
same,glycan array binding signal (z-score),[25],-0.178
same,glycan array binding signal (z-score),[26],-0.149
same,glycan array binding signal (z-score),[27],-0.13
same,glycan array binding signal (z-score),[28],-0.149
same,glycan array binding signal (z-score),[29],-0.165
same,glycan array binding signal (z-score),[30],-0.13
same,glycan array binding signal (z-score),[31],-0.141
same,glycan array binding signal (z-score),[32],-0.156
same,glycan array binding signal (z-score),[33],-0.038
same,glycan array binding signal (z-score),[34],-0.172
same,glycan array binding signal (z-score),[35],-0.154
same,glycan array binding signal (z-score),[36],-0.143
same,glycan array binding signal (z-score),[37],-0.14
